According to PubChem BioAssay AID1159614 (National Center for Advancing Translational Sciences (NCATS), 2016):
Hit rate of the full screen: of about 45,000 compounds, about 65 (0.1%) were called active. Calls come from the whole dose curve; as a rule, active = well fitted activation curve with a large enough effect; inconclusive = small, poorly fitted or top-dose-only effect; inactive = no such curve, though single readings can be large or run the other way. Some of the results follow.

Biological target: Galactocerebrosidase (Homo sapiens) (UniProt P54803)
UniProt P54803, sequence (P54803 whole entry, looked up): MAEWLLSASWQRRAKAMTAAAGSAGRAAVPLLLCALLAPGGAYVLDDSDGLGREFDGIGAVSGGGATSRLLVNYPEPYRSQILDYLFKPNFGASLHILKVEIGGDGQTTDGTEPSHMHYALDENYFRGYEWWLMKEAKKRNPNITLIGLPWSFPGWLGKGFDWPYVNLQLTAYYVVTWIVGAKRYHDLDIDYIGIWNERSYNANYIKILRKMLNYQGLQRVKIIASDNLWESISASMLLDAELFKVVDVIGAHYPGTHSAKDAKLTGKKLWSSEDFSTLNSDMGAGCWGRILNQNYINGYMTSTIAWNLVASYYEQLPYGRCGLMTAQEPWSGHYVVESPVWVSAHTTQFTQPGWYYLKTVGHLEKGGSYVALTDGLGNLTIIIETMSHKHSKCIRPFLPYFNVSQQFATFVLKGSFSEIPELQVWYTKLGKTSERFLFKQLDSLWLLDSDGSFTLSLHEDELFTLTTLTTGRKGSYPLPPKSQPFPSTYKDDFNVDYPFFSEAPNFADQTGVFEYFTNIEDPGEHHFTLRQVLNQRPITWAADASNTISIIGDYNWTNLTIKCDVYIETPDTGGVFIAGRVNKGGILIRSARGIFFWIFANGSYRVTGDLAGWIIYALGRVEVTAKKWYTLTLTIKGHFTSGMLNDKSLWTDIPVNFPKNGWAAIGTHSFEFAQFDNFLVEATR
Assay: A Novel Cell-Based Assay to Identify Small Molecules for B -Galactocerebrosidase; note: 0% is about no effect; nearly all actives have a fitted effect of over 65% in size
Details: 145M-Twi-hGALC-G270D cells, HMU-beta-Gal fluorescence, 48 h; series mostly up to 57.5 µM; activation: at the top concentration
Summary of the method: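 qHTS, 1536-well; 145M-Twi-hGALC-G270D cells (WT line also made) in DMEM/F12 + 10% FBS; compound incubation on live cells; HMU-β-gal 0.1 mM final, pH 5.2, NaTC; carbonate stop; fluorescence increase = enhanced residual activity.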

SMILES | activation
CCC1CN(C(=O)N2CCC(C(=O)NCc3cccc(OC)c3OC)CC2)c2cc(C)ccc2O1 (stereo unspecified) | inactive: 1.05%
CCC1=Nc2cc(C(=O)NC3CCC(C)CC3)ccc2Sc2ccc(C)cc21 (stereo unspecified) | inactive: -13.2%
Cc1ccccc1NC(=O)CSc1nc2ccc(NC(=O)c3cccs3)cc2s1 | inactive: -35.3%
CCc1ccc(NC(=O)CCn2c(=O)c3cccn3c3ccccc32)cc1 | inactive: -0.564%
COc1ccc(NC(=O)CSc2ccc3nc(-c4ccccc4)cn3n2)c(OC)c1 | inactive: -21.5%
Cc1ccc(NC(=O)c2ccc3[nH]c(C)cc(=O)c3c2)cc1 | inactive: -8.73%
CSc1cccc(NC(=O)c2cccc(N3CCCS3(=O)=O)c2)c1 | inactive: -8.55%
COc1cccc(-c2noc(C3CC(=O)N(c4ccc(F)cc4)C3)n2)c1OC (stereo unspecified) | inactive: -19.6%
COc1ccccc1CNC(=O)c1cc2sccc2n1Cc1ccc(Cl)cc1 | inactive: -5.24%
CCOCCCNC(=O)C1CCN(C(=O)c2cc3sccc3n2C)CC1 | inactive: -19.6%
Cc1cc2c(cc1NC(=O)c1ccccc1C)n(C)c(=O)c(=O)n2C | inactive: -6.26%
COc1ccc(CCNC(=O)CCCn2c(=O)c3cccn3c3ccccc32)cc1OC | inactive: -10.6%
COc1cc(-c2nnc(SCCOc3ccc(Cl)cc3)o2)cc(OC)c1OC | inactive: -5.26%
O=C(COc1ccccc1)OCc1cc(=O)n2nc(C3CC3)sc2n1 | inactive: -5.68%
CCc1ccc2oc(C(=O)Nc3cccc(Cl)c3C)cc(=O)c2c1 | inactive: -8.14%
COc1ccc(NC(=O)CCCN2C(=O)C(c3ccccc3)Oc3cccnc32)c(OC)c1 (stereo unspecified) | inactive: -4%
CCc1ccc(CNC(=O)CCCN2C(=O)CCn3nc(-c4cccn4C)cc32)cc1 | inactive: -20.7%
CC(C)CCN(Cc1ccco1)C(=O)c1cc2c(s1)-c1ccccc1OC2 | inactive: -9.76%
Cc1ccc(C(=O)Nc2cc(-c3nc4ncccc4o3)ccc2C)c(C)c1 | inactive: -18.9%
COCc1nn2cc(-c3ccc(C)cc3)nc2s1 | inactive: -6%
Cc1ccc(C(=O)c2c(N)c(-c3nc(-c4ccc5c(c4)OCO5)cs3)c3ccccn23)cc1C | inactive: -25%
Cc1cccc(N2CCN(C(=O)Cc3c(C(=O)O)c(C)cn3C)CC2)c1C | inactive: -12.6%
COC(=O)c1ccc(Cn2cnc3nc4c(cc3c2=O)CCCC4)cc1 | inactive: -9.36%
CC(=O)N1CCc2c(sc3c2c(=O)n(Cc2ccccc2)c(=O)n3Cc2ccc(C)cc2)C1 | inactive: -3.66%

SMILES | activation
CC(=O)c1ccc(N2CCN(C(=O)C3CCN(S(=O)(=O)c4c(C)noc4/C=C/c4ccc(C)cc4)CC3)CC2)cc1 | inactive: 2.73%
CCOc1ccccc1NC(=O)Cn1ncc2c(=O)oc3ccc(C)cc3c21 | inactive: -15.9%
COc1ccccc1NC(=O)CSC1=Nc2ccccc2C2=NC(CCC(=O)NCCc3ccccc3)C(=O)N12 (stereo unspecified) | inactive: -5.85%
CCOC(=O)c1c(C)oc2ncnc(Nc3ccc(OC)cc3OC)c12 | inactive: -6.4%
CCOc1ccccc1CNC(=O)C1CCN(S(=O)(=O)c2ccc3[nH]c(=O)ccc3c2)CC1 | inactive: -2.6%
CN1C(=O)Cc2cc(S(=O)(=O)NCCc3ccc(Cl)cc3)ccc21 | inactive: 1.33%
COc1ccc(-c2noc(CSc3nnc(C)n3-c3ccc(C)cc3)n2)cc1OC | inactive: -5.07%
Cc1ccc(C(=O)N2CCc3cc(CNS(=O)(=O)c4cccs4)ccc32)cc1 | inactive: -0.825%
COc1ccc(N2CCN(C(c3ccccc3)c3sc4nc(-c5ccco5)nn4c3O)CC2)cc1 (stereo unspecified) | inactive: -22.2%
O=C(Nc1nc2c(s1)CCCCCC2)Nc1ccc(F)cc1F | inactive: -15.6%
Cc1cccc(C2C=C(c3ccc(C)c(C)c3)Nc3nnnn32)c1 (stereo unspecified) | inactive: -15%
Cc1cc(F)ccc1S(=O)(=O)Nc1ccc2oc3c(c2c1)CC(C)CC3 (stereo unspecified) | inactive: -21.1%
Cc1nc2ccn(Cc3ccccc3)c(=O)c2cc1C(=O)N1CCN(c2ccccc2F)CC1 | inactive: -11.8%
COc1cc(OC)cc(-c2cc3nc(C)c(CCC(=O)NCc4ccccc4)c(C)n3n2)c1 | inactive: -12.6%
CCOc1ccccc1C(=O)NC1(C(F)(F)F)NC(=O)N(CCc2ccc(OC)c(OC)c2)C1=O (stereo unspecified) | inactive: -1.53%
COc1ccccc1N1CCN(C(=O)c2cn(CC(C)C)c(=O)c3c2c2ccccc2n3C)CC1 | inactive: -3.97%
O=C(Nc1ccc(O)c(-c2nc3ccccc3o2)c1)c1sc2ccccc2c1Cl | inactive: -0.43%
O=C(CSCc1cnn(-c2ccccc2)c1-n1cccc1)NCc1ccc(Cl)cc1 | inactive: -2.36%
O=C(Nc1nnc(S(=O)(=O)N2CCCc3ccccc32)s1)c1ccccc1Cl | inactive: -5.72%
CC(C)c1ccc(NC(=O)c2ccc3c(c2)CCN3S(=O)(=O)c2ccccc2)cc1 | inactive: -29.1%
COc1ccc(CCNc2nc(-c3ccc(Cl)cc3)cc(C(F)(F)F)n2)cc1OC | inactive: -5.05%
CCOC(=O)c1c(C)[nH]c(C)c1S(=O)(=O)N1CCC(C(=O)N2CCN(c3cccc(C)c3C)CC2)CC1 | inactive: -7.91%
COc1ccccc1-c1nc2c(c(SCc3ccc(F)cc3Cl)n1)Cc1c(CO)cnc(C)c1O2 | inactive: -6.42%
O=C(Nc1ccc(F)cc1)c1ccc(Cn2nc(N3CCN(c4ccccc4)CC3)ccc2=O)o1 | inactive: -11.7%

SMILES | activation
COC(=O)c1ccc(NC(=O)CCc2c(C)nn(-c3ccc(N4CCOCC4)nn3)c2C)cc1 | inactive: -6.46%
COc1ccc(Cl)cc1NC(=O)Cc1coc2c(C)c(C)ccc12 | inactive: -43.2%
CCc1ccc(NC(=O)c2sc3nc4c(cc3c2N)CN(CC)CC4)cc1 | inactive: -6.64%
Cc1cc(C)c2c(=O)cc(C(=O)Nc3nc4ccc(F)cc4s3)oc2c1 | inactive: -12.6%
CCC(CC)C(=O)Nc1c(C(=O)N2CCN(c3ccccc3)CC2)oc2ccccc12 | inactive: -23%
Cc1ccc(C(=O)Oc2ccc(C(O)CNC(C)(C)C)cc2OC(=O)c2ccc(C)cc2)cc1 (stereo unspecified) | inactive: -13.3%
CCc1cccc(NC(=O)Cn2c(=O)c(C(F)(F)F)nc3ccccc32)c1 | inactive: -3.84%
Cc1ccc(CNS(=O)(=O)c2ccc(-c3cnc(C4CC4)o3)cc2)cc1 | inactive: -5.65%
Cc1coc2cc3oc(=O)c(CC(=O)N4CCCCC4)c(C)c3cc12 | inactive: -5.82%
Cc1cccc(CSc2nc3cc(C(=O)NC4CCCC4)ccc3c(=O)n2Cc2ccccc2)c1 | inactive: -11.5%
Cc1ccc(-n2nc(C(C)(C)C)cc2NC(=O)Nc2ccc(OCCN3CCOCC3)c3ccccc23)cc1 | inactive: -15.7%
Cc1cc(N(C)Cc2ccccc2)n2nc(-c3ccc(C(C)(C)C)cc3)nc2n1 | inactive: 3.04%
CCCCNC(=O)c1cccc(-n2cnc3cccnc32)c1C | inactive: -2.69%
CC1CCCCN1C(=O)c1ccc2c(c1)N(Cc1cccc(Cl)c1)C(=O)c1ccccc1S2=O (stereo unspecified) | inactive: -1.77%
CCC(NC(=O)Nc1cc(Cl)ccc1OC)c1c(-n2cccc2)sc2c1CCN(C)C2 (stereo unspecified) | inactive: -3.9%
CCCCCn1c(=O)[nH]c2cc(C(=O)NCCN(C)CCCC)ccc2c1=O | inactive: -11.4%
CC1CCN(c2nc3c(-c4cccc(Br)c4)nnn3c3ccccc23)CC1 | inactive: 4.32%
COc1ccc(OCCn2nnc3sc4c(c3c2=O)CCC(C(C)(C)C)C4)cc1 (stereo unspecified) | inactive: -17.9%
CCOc1ccc(-c2c(C)nn3c(C)c(C(=O)NCc4ccc(Cl)cc4)cnc23)cc1OCC | inactive: -6.71%
CCc1ccc(-n2nc3cc(C)c(NC(=O)c4ccccc4C)cc3n2)cc1 | inactive: -10.1%
O=C(CSc1c2c(nc3ccc(Cl)cc13)CCCC2)NCc1ccccc1Cl | inactive: 3.22%
COc1ccc(CCNC(=O)c2cc(=O)c3cc(C)cc(C)c3o2)cc1OC | inactive: -24.3%
N=c1n(CCO)c2ccccc2n1Cc1ccccc1F | inactive: 1.37%
COc1ccc(Br)c(C(=O)Nc2cc3c(cc2N2CCCC2)n(C)c(=O)c(=O)n3C)c1 | inactive: -12.7%

SMILES | activation
CCC(Sc1nc2ccccc2c2nc(CCn3c(C)nc4ccccc43)nn12)C(=O)Nc1ccc(F)cc1 (stereo unspecified) | inactive: -7.63%
Cc1ccc(-c2cc(C(=O)OCC(=O)c3ccccc3)c3cccc(Cl)c3n2)cc1 | inactive: -9.85%
O=C(OCc1ccco1)c1ccc2c(c1)N(Cc1cccc(F)c1)C(=O)c1ccccc1S2 | inactive: -10%
CCN1C(=O)c2ccccc2S(=O)c2ccc(C(=O)NCc3ccc(C)cc3)cc21 (stereo unspecified) | inactive: -4.17%
COc1cc(NC(=O)C2CCN(S(=O)(=O)c3c(C)noc3/C=C/c3cccs3)CC2)cc(OC)c1 | inactive: -8.64%
COc1ccc(S(=O)(=O)N(CC(=O)Nc2ccc(OC)cc2OC)c2ccc(Cl)cc2)cc1 | inactive: -1.9%
Cc1ccc2c(c1)c(=O)c(C(=O)c1ccccc1)cn2Cc1ccccc1F | inactive: -12.1%
COc1ccc(NC(=O)CC2C(=O)N(c3ccccc3)C(=O)N2CCC2=CCCCC2)cc1 (stereo unspecified) | inactive: -10.8%
CCOc1cccc(C(=O)Nc2nnc(S(=O)(=O)N(C)c3ccc(C)cc3)s2)c1 | inactive: -14.9%
CCC1CN(C(=O)Nc2ccccc2C(F)(F)F)c2ccccc2O1 (stereo unspecified) | inactive: -11.4%
COc1ccc(/C=C(/C#N)c2nc(-c3cc4ccccc4oc3=O)cs2)cc1 | inactive: -7.71%
Cc1cccc(N2CC(c3nc4ccc(C)cc4[nH]3)CC2=O)c1 (stereo unspecified) | inactive: -6.23%
CCOc1ccccc1C1C(C(N)=O)=C(C)Nc2nc(-c3ccccc3Cl)nn21 (stereo unspecified) | inactive: -10.7%
COc1ccc(-c2nc(SCC(=O)c3ccc(Br)cc3)n[nH]2)cc1 | inactive: -15.3%
Cc1c(CNC2CCC(C)CC2)c(C(=O)O)c(C)n1Cc1ccccc1F (stereo unspecified) | inactive: -13.3%
Cn1ccc2cc(S(=O)(=O)N3CCCC(C(=O)NCc4ccc(F)cc4)C3)ccc21 (stereo unspecified) | inactive: -18.6%
C=CCSCC1Nc2cc(Cl)c(S(N)(=O)=O)cc2S(=O)(=O)N1 (stereo unspecified) | inactive: -28.5%
CCOc1ccc(NC(=O)CC2C(=O)N(c3ccc(C)cc3)C(=O)N2C2CCCCC2)cc1 (stereo unspecified) | inactive: -14.6%
Cc1cc(C)n(CCc2nc3c4ccccc4nc(SCc4ccc(Cl)cc4)n3n2)n1 | inactive: -11.2%
O=C(NC1(C(F)(F)F)N=C(c2ccccc2)N(C2CCCCC2)C1=O)c1ccc(F)cc1 (stereo unspecified) | inactive: -18.3%
O=C(CSc1nc(-c2ccc(F)cc2)nc2c1Cc1ccccc1O2)Nc1cccc(C(=O)O)c1 | inactive: -10.4%
CCOc1ccccc1-c1noc(CCCC(=O)Nc2cccc(C(F)(F)F)c2)n1 | inactive: -27.2%
CC(=O)Nc1ccc(NC(=O)c2cc3c(=O)n(Cc4cccnc4)ccc3nc2C)cc1 | inactive: -25.2%
N#Cc1cccc(NC(=O)C2CCN(c3cnccn3)CC2)c1 | inactive: 0.737%
